Results on 67 sequences are retold here after the supplement of paper PMC10126150.

Sequences with one replicate were seen in a single cluster, so their values are uncertain.

This data set deals with ATP. The experiment in a line: switch fluorescence ratio, 500 uM ATP over buffer (Cy3 cluster intensity, sum of 5 cycles each) (fold (ratio)); higher = stronger signal-on switching upon ATP binding; sequences stand for … in TCGTCGGCAGCGTCAGATGTGTATAAGAGACAGTTTTTTTTTTTTTTTTTTTTTTTTT…TC. The settings on record: aptamer strand: ATP DNA aptamer (quencher-CACCTGGGGGAGTATTGCGGAGGAAGG + anchor), 100 nM annealed; ATP concentration: 500 uM; one replicate. The method, boiled down:
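Exposure to 500 uM ATP lasted 15 min at 22 °C before imaging, and a selection-buffer image was taken beforehand, for Cy3-labelled switching-strand clusters on a modified Illumina MiSeq flow-cell annealed to 100 nM quencher-labelled ATP aptamer. Five buffer/ATP cycles were run with NaOH stripping and re-annealing between them. The fluorescence ratio per cluster is summed target-cycle over summed buffer-cycle Cy3 intensity, averaged per switch-domain sequence. Clusters outside 100-1000 RFU were excluded.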

For GTAGCGTGTC, the switch fluorescence ratio was found to be 1.05.
To GGTGACGTAG belongs 1.02.
As for AAGACGAGGG, the switch fluorescence ratio is 1.03.
To GGATGAGGGG belongs 1.01.
With AATTGTGTTA, the switch fluorescence ratio is 1.01.
Regarding GATCGCTGC, the switch fluorescence ratio was 1.41.
To ATGACGTCGT belongs 1.03.
Take GAGCGATAAT: the switch fluorescence ratio is 1.1.
Then CTACGCTAGG, with 2.41; and TAGGTAACGA, with 0.98.
Consider AGCGCAAGAA, for which the switch fluorescence ratio turned out to be 2.66.
As to CGGTAAAAGT, the switch fluorescence ratio turned out to be 0.966.
To AAGTAACTGG belongs 1.03; to TTGGAAGCGC, 1.04; to CATGCATACG, 1.09.
Consider CGCCCGTGGC, for which the switch fluorescence ratio came out at 0.953.
To CGAGTCGGGC belongs 1.03.
Regarding CGAAGGACTA, the switch fluorescence ratio turned out to be 1.03.
To CGCCCGGTGT belongs 4.14; to GCTAGCAAAC, 0.988.
For the sequence CACAATCCCG, the switch fluorescence ratio was 1.02.
To TCCGATATTT belongs 1.08; to AATAAAAAAG, 0.939; to TATTGTGGG, 0.987.
As for GCATCAAACC, the switch fluorescence ratio came out at 1.
Then ACTTTTTTGT, with 0.998; and GCATCGTGCT, with 1.02.
As to AAGGTCCGTT, the switch fluorescence ratio came to 0.929.
Then CAGCGGTTCC, with 1.05; and CAGAGTCAGG, with 1.02.
Then TTCAATCCAT, with 0.97; and CTGGAAGGTA, with 0.99.
To TCGGAACTAA belongs 0.987.
Take GCAATTTAA: the switch fluorescence ratio was 1.03.
Then GTTTGGAGAT, with 0.981; and AGGTTGAATC, with 0.98.
With GACAACGCGG, the switch fluorescence ratio is 1.06.
Take TCTCTGGTCA: the switch fluorescence ratio came to 1.01.
Turning to AGCGCATAAT, the switch fluorescence ratio turned out to be 1.
To AAAGGGAGGC belongs 1.01; to GATGATTCAT, 1; to TTAGCGTCAA, 1.03.
To CACCAAATCC belongs 1.07; to CGTGTGTCGT, 0.972; to CGCGTATGGT, 1.
As to CCCCGTAACT, the switch fluorescence ratio was found to be 2.55.
Then ACCCCGGTTG, with 1.06; and CCAACTGT, with 0.933.
To CAACGAGACG belongs 1.
Then ATCTGGGAAA, with 1; and TAAACACATA, with 1.06.
For TCGTGTGCCG, the switch fluorescence ratio stood at 1.07.
To CTTGACATCG belongs 0.949; to TCCCCAGCTG, 4.
To GGGTGCGCCC belongs 0.98.
To CAATAAAAGC belongs 1.01.
As for CACACTCCCG, the switch fluorescence ratio was 1.25.
Take GCGCGCTCAT: the switch fluorescence ratio was 0.976.
To ATCGTTTAGC belongs 0.998; to GTGCCGACTG, 1.02.
On to GCTTTTGTG, for which the switch fluorescence ratio came to 0.994.
Turning to ATAATGTAAA, the switch fluorescence ratio amounted to 1.05.
AAGCCTCTAG: the switch fluorescence ratio came to 1.01.
To TCTTGAGGAC belongs 1.01; to GCGCAAACTC, 2.53; to CAGGCTTCT, 1.
As to AGCTAGGTAT, the switch fluorescence ratio was 1.03.
